# Reference: PubChem BioAssay AID488969 (Vanderbilt High Throughput Screening Facility, 2010)
# Whole data set: some 110,000 compounds, median “z-score” near -0.1, cut for the highest 2% near 2. Some of the results follow. The source made the active and inactive calls.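 Rule for the calls: active = z-score in the third read window above 3 or below -3; inactive = the rest.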
# Target: Metabotropic glutamate receptor 8 (Rattus norvegicus) (UniProt P70579)
# Test: mGluR8 Gi/Go-coupled signaling modulation – cell-based, rat, thallium flux, HTS, primary screen (AID 488969)
# Settings: HEK293 rat mGluR8, GIRK (G protein-gated inwardly rectifying potassium channel) thallium flux, FluoZin2; at 10 µM; stronger effect = higher value; submaximal glutamate (EC20) added with thallium
# Sequence of UniProt P70579 (P70579 whole entry, looked up): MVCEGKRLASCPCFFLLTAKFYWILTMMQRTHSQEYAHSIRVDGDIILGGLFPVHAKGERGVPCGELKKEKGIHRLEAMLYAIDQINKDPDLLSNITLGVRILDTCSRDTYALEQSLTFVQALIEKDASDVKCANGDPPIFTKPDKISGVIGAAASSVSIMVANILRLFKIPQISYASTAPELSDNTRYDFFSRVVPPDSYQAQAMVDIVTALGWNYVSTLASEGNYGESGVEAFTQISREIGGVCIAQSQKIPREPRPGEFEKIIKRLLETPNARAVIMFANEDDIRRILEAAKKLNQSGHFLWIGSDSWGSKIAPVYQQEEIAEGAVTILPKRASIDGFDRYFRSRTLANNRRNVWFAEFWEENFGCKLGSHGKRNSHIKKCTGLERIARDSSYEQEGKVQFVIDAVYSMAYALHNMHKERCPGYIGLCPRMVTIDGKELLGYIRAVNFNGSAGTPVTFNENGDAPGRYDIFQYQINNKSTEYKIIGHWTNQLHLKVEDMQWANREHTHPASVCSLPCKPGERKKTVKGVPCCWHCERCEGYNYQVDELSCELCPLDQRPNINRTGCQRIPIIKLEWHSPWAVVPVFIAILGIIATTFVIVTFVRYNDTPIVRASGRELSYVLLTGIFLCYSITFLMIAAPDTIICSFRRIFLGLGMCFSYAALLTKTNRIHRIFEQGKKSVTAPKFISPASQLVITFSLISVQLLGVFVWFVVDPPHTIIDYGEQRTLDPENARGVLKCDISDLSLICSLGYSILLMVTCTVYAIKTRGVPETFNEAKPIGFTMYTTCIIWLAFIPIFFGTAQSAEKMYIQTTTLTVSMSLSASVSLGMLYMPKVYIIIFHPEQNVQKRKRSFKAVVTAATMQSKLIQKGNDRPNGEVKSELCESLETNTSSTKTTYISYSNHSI
row,Structure (SMILES),z-score
1,COc1cc(C=O)ccc1OCC(=O)N1CCOCC1,-0.617
2,Cc1cccc(OCC(=O)Nc2ccc(N3CCN(C(=O)c4ccco4)CC3)cc2)c1,-0.087
3,Cn1/c(=N/N=C/c2ccc([N+](=O)[O-])cc2)sc2ccccc21,-0.205
4,CCOC(=O)c1c(C)nc2c(c1-c1cc(OC)c(OC)c(OC)c1)C(=O)c1ccccc1-2,-0.175
5,Oc1ccc(N=C/C=C/c2ccc(Br)cc2)cc1-c1nc2ccccc2s1,-0.362
6,Cc1noc(C)c1S(=O)(=O)N1CCC(C(=O)N2CCC(N3CCCCC3)CC2)CC1,0.13
7,Cc1nc(N2CCOCC2)nc(OCCN2CCOCC2)c1[N+](=O)[O-],-0.39
8,Cn1cc(SCC(=O)O)c2ccccc21,-0.123
9,CC(Cc1cccs1)NC(=S)Nc1ccc(F)cc1 (stereo not given),-0.132
10,Cc1cnc(C(=O)OCC(=O)N(C(C)C)C(C)C)cn1,-0.272
11,COC(=O)C1C(=O)C2=C(CC1C)NC(C)=C(C(=O)OCCOc1ccccc1)C2c1ccc(C)o1 (stereo not given),-1.61
12,CCOc1ccc(C2c3c(oc4ccccc4c3=O)C(=O)N2CCCN2CCOCC2)cc1 (stereo not given),-0.851
13,O=C(c1cnn2c(C(F)F)cc(C3CC3)nc12)N1CCOCC1,-0.302
14,Cn1cc(-c2nnnn2-c2ccccc2)c(=O)c2ccccc21,0.01
15,COC(=O)CSc1nc(NC#N)nc(NC(C)C)n1,-0.00648
16,Cc1ccccc1N1CCN(C(=O)c2ccccc2NC(=O)C2CC=CCC2C(=O)O)CC1 (stereo not given),-0.389
17,CC(C)CC(=O)n1sc(NC(=O)c2ccccc2)nc1=O,-0.65
18,O=C1NCC(c2ccccc2)C1C(=O)N/N=C\c1ccc(-c2cccc(Cl)c2Cl)o1 (stereo not given),0.334
19,COc1ccccc1S(=O)(=O)Nc1ccc2cn[nH]c2c1,-0.13
20,CC(C)CCNC(=O)c1cccc(C(=O)NCCC(C)C)c1,-0.145
21,COc1ccc(N(CC(=O)N2CCCCC2)S(=O)(=O)c2c(C)nn(C)c2C)cc1,0.0812
22,CCOc1ccc(-c2nc(C#N)c(N3CCN(C)CC3)o2)cc1,0.278
23,CCOc1ccc(NS(=O)(=O)CC23CCC(CC2=O)C3(C)C)cc1 (stereo not given),0.425
24,CCOC(=O)N1CCN(C(=O)CS(=O)Cc2nc(-c3cccc(C)c3)oc2C)CC1 (stereo not given),-0.252

row,Structure (SMILES),z-score
1,COc1ccc2oc3cc(C)[n+]([O-])c(-c4ccc(C)cc4)c3c2c1,-1.14
2,O=C(/C=C/c1cccc(F)c1)N(c1ccccn1)C1CCCCC1,0.127
3,COc1cc(OC)c(-c2nc3c[n+](CC(=O)c4ccccc4)ccc3n2C)cc1OC,0.162
4,COc1ccc(NC(=O)CSc2nnc(Cn3nnc4ccccc43)n2C)cc1,-0.0884
5,CCn1ncc(/C=C/C(=O)Nc2c(C)nn(Cc3ccc(Cl)cc3Cl)c2C)c1C,-0.897
6,Cn1c(CNc2ccc(Cl)cc2)nnc1SCCN1CCCCC1,0.273
7,Oc1cccc(NC(=S)Nc2cccnc2)c1,-0.756
8,Cc1ccc(C(C)C)c(OCc2ccc(C(=O)N/N=C/c3cccc(O)c3O)cc2)c1,-0.457
9,O=S(=O)(c1ccc(Cl)cc1)N1CCCC1c1nc(-c2cccc(Cl)c2)no1 (stereo not given),0.0836
10,O=c1nc(-c2ccccc2)cn[nH]1,0.0419
11,C/C(=N\NC(=O)C1CC1(c1ccccc1)c1ccccc1)c1cccc([N+](=O)[O-])c1 (stereo not given),-0.124
12,Cc1cccc(-c2cc(C(=O)Nc3sc(C)c(C)c3C(N)=O)c3ccccc3n2)c1,-0.0149
13,Fc1ccc(/C=C2\CCCC3=C2Nc2ncnn2C3c2ccc(F)cc2)cc1 (stereo not given),-0.184
14,CCNc1nc(SC)nc(N(C#N)CC(=O)OC)n1,-0.0523
15,O=C1C(=O)N(CCOCCO)C(c2ccccn2)/C1=C(\O)c1ccccc1 (stereo not given),0.0923
16,CC(=O)N1CCN(c2ccc(Oc3nnnn3-c3ccccc3)cc2)CC1,-0.0818
17,O=C(OCC(=O)N1CCCC1)c1cncc(Br)c1,0.255
18,CCOC(=O)c1ccc(S(=O)(=O)Nc2cc(C(C)(C)C)no2)cc1,0.412
19,COCC(=O)N1CCC(n2nnc3cc(F)ccc32)CC1,-0.0323
20,CC(C)N(CC#CCC1(O)c2ccccc2-c2ccccc21)CCO,0.101
21,CC1CCC/C(=C\Nc2ccc(O)cc2)C1=O (stereo not given),-0.462
22,COc1ccc(OC)c(S(=O)(=O)N2CCCCC2C(=O)O)c1 (stereo not given),0.288
23,Fc1ccccc1/C=N/NC(=S)Nc1ccc(Cl)cc1Cl,active: 3.47
24,O=C(NC1CCCCC1)C(c1ccncc1)N(Cc1ccccc1)C(=O)c1ccc(-c2ccccc2)[nH]1 (stereo not given),-0.272

row,Structure (SMILES),z-score
1,CCOCCCNC(=O)Cn1ncc2c(=O)oc3ccccc3c21,-0.371
2,CCn1c(=S)[nH]c2ccccc21,0.63
3,CCCCc1nnc(SCc2ccc(OCC)cc2)n1N,-0.214
4,Cc1cc(=O)c2cc(Br)ccc2[nH]1,-0.136
5,O=C(CSc1nnc(CNC(=O)c2cccs2)o1)NCc1ccc(F)cc1,-0.187
6,CCS(=O)(=O)N1CCN(c2ccccn2)CC1,-0.0417
7,Cc1cccc(N2CCN(C(=O)Cn3sc4nc(C)cc(C)c4c3=O)CC2C)c1 (stereo not given),0.149
8,COCCn1c(CN(Cc2ccccc2)Cc2ccccc2)nc2c1c(=O)n(C)c(=O)n2C,active: 3.37
9,CCOC(=O)c1ccc(CSc2nncn2N)o1,-0.0767
10,COC(=O)C(C(=O)OC)C(C[N+](=O)[O-])c1ccc(OC)c(OC)c1 (stereo not given),0.148
11,Cc1ncc([N+](=O)[O-])n1CC(C)O (stereo not given),0.025
12,CCn1c(CN2CCN(c3ccc(Cl)cc3)CC2)nc2ccccc21,-0.234
13,COC(=O)c1ccc(NN=Nc2ccc(C)cc2)cc1,-0.0599
14,Cc1c(C(=O)N2CCC(C)CC2)sc2ncnc(N(C)c3ccccc3)c12,-0.66
15,COC(=O)Cn1cnc2sc(C)c(S(=O)(=O)N3CCC(C)CC3)c2c1=O,0.108
16,Cc1ccc(-n2ncc3c(NCC4CCCO4)ncnc32)c(C)c1 (stereo not given),-0.069
17,COc1ccc(NC(=O)CCC2CCCCC2)cc1S(=O)(=O)N1CCCCC1,-0.36
18,Cc1ccc(C)c(N2CCN(c3ccc(N4C(=O)COCC4=O)cc3[N+](=O)[O-])CC2)c1,-0.128
19,O=C(O)CN=C(NS(=O)(=O)c1ccc(Cl)cc1)c1ccccc1,0.274
20,CCOC(=O)c1cc2sc(C)cc2n1CC(=O)NCc1ccc(F)cc1,-0.00664
21,COc1ccccc1C1C=C(c2ccc(Cl)cc2)Nc2nc(N3C(=O)CCC3=O)nn21 (stereo not given),-0.597
22,COC(=O)C1=CNC=C(C(=O)OC)C1c1ccc(Cl)cc1,-0.447
